Experimental findings from publication PMC4336329 (PLoS ONE, 2015) are described below.

Among all 310,000 compounds or so, about 14,000 (4.5%) showed an effect of 50% or more. Effects have a minus sign here. Some of the results follow.
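Further: peak tail current of the secondary pulse compared with the same well before compound.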

The target in this test is human ether-à-go-go-related gene (hERG) potassium channel (human, UniProt Q12809). The experiment in a line: primary screen, population patch clamp on CHO cells stably expressing hERG.
Sequence of human ether-à-go-go-related gene (hERG) potassium channel (Q12809 whole entry, looked up): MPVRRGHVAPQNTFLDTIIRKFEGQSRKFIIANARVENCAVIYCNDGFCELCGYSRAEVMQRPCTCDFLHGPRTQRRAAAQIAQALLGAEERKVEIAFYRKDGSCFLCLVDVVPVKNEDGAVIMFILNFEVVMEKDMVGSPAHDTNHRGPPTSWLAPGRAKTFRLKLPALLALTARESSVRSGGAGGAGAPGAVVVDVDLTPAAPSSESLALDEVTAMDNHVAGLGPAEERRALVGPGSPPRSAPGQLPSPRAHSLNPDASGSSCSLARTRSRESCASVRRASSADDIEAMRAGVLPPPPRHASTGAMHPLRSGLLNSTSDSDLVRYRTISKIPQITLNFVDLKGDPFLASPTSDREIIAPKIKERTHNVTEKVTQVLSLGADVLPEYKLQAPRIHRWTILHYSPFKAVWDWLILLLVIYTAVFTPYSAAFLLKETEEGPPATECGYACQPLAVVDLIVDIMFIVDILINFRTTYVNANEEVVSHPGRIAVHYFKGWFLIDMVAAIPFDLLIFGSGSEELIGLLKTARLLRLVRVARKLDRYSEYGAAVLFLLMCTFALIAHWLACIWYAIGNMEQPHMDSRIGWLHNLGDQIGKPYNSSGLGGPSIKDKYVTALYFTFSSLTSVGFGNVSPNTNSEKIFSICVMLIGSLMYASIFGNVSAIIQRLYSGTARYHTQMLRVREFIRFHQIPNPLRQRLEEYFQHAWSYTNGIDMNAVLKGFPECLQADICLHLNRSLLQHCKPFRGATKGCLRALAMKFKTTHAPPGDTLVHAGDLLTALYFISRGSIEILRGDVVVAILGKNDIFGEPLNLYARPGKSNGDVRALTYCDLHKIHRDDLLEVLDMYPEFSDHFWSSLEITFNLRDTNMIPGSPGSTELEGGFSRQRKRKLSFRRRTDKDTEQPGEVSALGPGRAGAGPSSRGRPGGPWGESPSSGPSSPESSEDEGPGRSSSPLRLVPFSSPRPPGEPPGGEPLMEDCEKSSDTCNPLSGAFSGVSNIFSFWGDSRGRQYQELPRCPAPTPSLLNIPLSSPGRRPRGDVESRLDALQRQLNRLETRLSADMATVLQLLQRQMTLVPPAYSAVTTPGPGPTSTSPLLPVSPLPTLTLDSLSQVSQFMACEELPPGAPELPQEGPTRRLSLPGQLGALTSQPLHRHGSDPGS
`O=C(c1sc2ccccc2c1Cl)N(Cc1cccs1)C1CCS(=O)(=O)C1` (stereo not drawn): the “hERG current change (%, negative = inhibition) at 10uM” value is listed as -10.6%.

Take `CC(=O)CCCC(NS(=O)(=O)CCC(Cl)(Cl)Cl)c1ccccc1` (stereo not drawn): the “hERG current change (%, negative = inhibition) at 10uM” value is reported as -20.4%.

Turning to `Cc1ccc(NC(=O)CCC(=O)NNC(=O)c2ccco2)cc1C`, the “hERG current change (%, negative = inhibition) at 10uM” value is -2.2%.

`COc1ccc(-c2nnc(SCC(=O)N3CCc4ccccc4C3)o2)cc1`: the “hERG current change (%, negative = inhibition) at 10uM” value is listed as -33.6%.

As to `COc1cc(OC)cc(C(=O)NCCC(=O)NCCc2ccc(OC)c(OC)c2)c1`, the “hERG current change (%, negative = inhibition) at 10uM” value was found to be 2.89%.

In the case of `FC(F)(F)c1cc(-c2ccccc2)nc(N2CCCCCC2)n1`, the “hERG current change (%, negative = inhibition) at 10uM” value amounted to 20.5%.

For the compound `CSCC[C@H](NC(=O)Nc1ccc(Oc2ccccc2)cc1)C(=O)O`, the “hERG current change (%, negative = inhibition) at 10uM” value was determined as 26.1%.

With `CCOc1ccc(CCNC(=O)c2cccc(S(=O)(=O)N3CCCC3)c2)cc1OCC`, the “hERG current change (%, negative = inhibition) at 10uM” value is reported as -26%.

Consider `CC(OC(=O)c1ccco1)C(=O)NCc1ccc2c(c1)OCO2` (stereo not drawn), for which the “hERG current change (%, negative = inhibition) at 10uM” value is given as -0.231%.

Consider `Cc1ccccc1NC(=O)Cn1nc(C(=O)O)c2ccccc2c1=O`, for which the “hERG current change (%, negative = inhibition) at 10uM” value came out at 9.6%.

Take `Cc1cccc(OCCCn2ccnc2)c1`: the “hERG current change (%, negative = inhibition) at 10uM” value is -14.9%.

In the case of `O=c1c2sccc2nc(SCc2cc(=O)n3cc(Cl)ccc3n2)n1-c1ccc(F)cc1`, the “hERG current change (%, negative = inhibition) at 10uM” value is reported as -3.21%.

On to `CCN(CC)S(=O)(=O)c1ccc(OC)c(NC(=O)c2cn(CC)c3nc(C)ccc3c2=O)c1`, for which the “hERG current change (%, negative = inhibition) at 10uM” value was 26.7%.

In the case of `Cc1ccc(OCC(=O)NC(=S)Nc2cccc(C)n2)cc1`, the “hERG current change (%, negative = inhibition) at 10uM” value turned out to be 4.25%.

For the compound `COc1cc(/C=N/n2nnnc2N)ccc1OC(C)=O`, the “hERG current change (%, negative = inhibition) at 10uM” value is listed as 14.8%.

Regarding `Cc1ccccc1NC(=O)c1ccc(OCC(=O)Nc2ccccc2F)cc1`, the “hERG current change (%, negative = inhibition) at 10uM” value came out at 16%.

With `O=C(CN1CCN(S(=O)(=O)c2ccc(Br)cc2)CC1)N/N=C/c1ccco1`, the “hERG current change (%, negative = inhibition) at 10uM” value is -56.9%.

Take `COCCCN1C(=O)C(O)=C(C(C)=O)C1c1cccc(F)c1` (stereo not drawn): the “hERG current change (%, negative = inhibition) at 10uM” value was 7.18%.

For `O=C(NC(=S)N1CCN(c2ccccc2)CC1)c1ccccc1`, the “hERG current change (%, negative = inhibition) at 10uM” value was 1.58%.

In the case of `Cc1sc2ncnc(SCC(=O)c3ccc(O)cc3O)c2c1C`, the “hERG current change (%, negative = inhibition) at 10uM” value came to 19.7%.

`COC(=O)/C=C/c1ccc(-n2ccnc2)cc1`: the “hERG current change (%, negative = inhibition) at 10uM” value is reported as -22.5%.

In the case of `CCCCCC(=O)NNC(=O)c1ccc(F)cc1`, the “hERG current change (%, negative = inhibition) at 10uM” value stood at 8.69%.

Regarding `CC(C)(C)N1CC(COc2ccccc2)OC1=O` (stereo not drawn), the “hERG current change (%, negative = inhibition) at 10uM” value is listed as -8.98%.

In the case of `CS(=O)(=O)c1ccc(Cl)c(C(=O)NC2CCSc3ccccc32)c1` (stereo not drawn), the “hERG current change (%, negative = inhibition) at 10uM” value is recorded as 5.95%.

`COP(=O)(NS(=O)(=O)c1ccccc1)OC`: the “hERG current change (%, negative = inhibition) at 10uM” value stood at 19.9%.

For `Cc1ccc(S(=O)(=O)N2CCOCC2)cc1C(=O)Nc1nc2ccccc2[nH]1`, the “hERG current change (%, negative = inhibition) at 10uM” value was -10.6%.

With `C=CCn1c(O)c(C(C)=NCCN2CCN(C(=S)NC)CC2)c(=O)[nH]c1=O`, the “hERG current change (%, negative = inhibition) at 10uM” value came to 0.328%.

For the compound `O=C(COC(=O)C1COc2ccccc2O1)NC(=O)Nc1ccc2c(c1)OCCO2` (stereo not drawn), the “hERG current change (%, negative = inhibition) at 10uM” value is listed as -6.36%.

With `CCn1nc(C(=O)OCC(=O)Nc2ncc(Cl)c(C)c2Cl)c2ccccc2c1=O`, the “hERG current change (%, negative = inhibition) at 10uM” value was -2.63%.

As for `COc1cccc(-c2nn(C)c3sc(C(=O)Nc4ccc5c(c4)OCCO5)cc23)c1`, the “hERG current change (%, negative = inhibition) at 10uM” value is 20.4%.

Regarding `Clc1cccc(OCc2nnc(-c3ccccc3Br)o2)c1`, the “hERG current change (%, negative = inhibition) at 10uM” value is reported as 21.9%.

As for `O=C(COc1ccc2c3c(c(=O)oc2c1)CCCC3)NCc1ccccn1`, the “hERG current change (%, negative = inhibition) at 10uM” value is 4.11%.

In the case of `O=C(Cc1ccccc1)Nc1cccc(NC(=O)c2cccs2)c1`, the “hERG current change (%, negative = inhibition) at 10uM” value is 6.58%.

For `CCN1CCN(C(=S)Nc2ccc3nc(N4CCN(CC)CC4)cc(C)c3c2)CC1`, the “hERG current change (%, negative = inhibition) at 10uM” value is recorded as -13.9%.

In the case of `CN1C(=O)N(C)C2(c3ccccc3)N(C)C(=O)NC12c1ccccc1` (stereo not drawn), the “hERG current change (%, negative = inhibition) at 10uM” value is recorded as -22.9%.

As for `CC(C)(C)c1ccc(/C=C2/SC(N3CCCC3)=NC2=O)cc1`, the “hERG current change (%, negative = inhibition) at 10uM” value is reported as -51.1%.

Consider `COc1ccccc1N1CCN(CC(O)COc2ccc3c(C)cc(=O)oc3c2)CC1` (stereo not drawn), for which the “hERG current change (%, negative = inhibition) at 10uM” value is listed as -24.7%.

Take `Cl.O=C(CNCc1cccs1)Nc1ccc(S(=O)(=O)N2CCCCC2)cc1`: the “hERG current change (%, negative = inhibition) at 10uM” value is recorded as -70.9%.

For `CN(C)/C=C1\N=C(c2ccc3c(c2)OCO3)OC1=O`, the “hERG current change (%, negative = inhibition) at 10uM” value is recorded as 14.8%.

As for `CCC(C)Cn1c(C)nc2ccccc21` (stereo not drawn), the “hERG current change (%, negative = inhibition) at 10uM” value was 2.37%.

In the case of `COc1ccc(NC2CCCN(C(=O)c3csc(C)n3)C2)cc1` (stereo not drawn), the “hERG current change (%, negative = inhibition) at 10uM” value is listed as 9.97%.

Regarding `C=CCn1c(=O)c2c(nc3n2CC(C)CN3c2cccc(OC)c2)n(C)c1=O` (stereo not drawn), the “hERG current change (%, negative = inhibition) at 10uM” value is recorded as -21.7%.

Take `NC(=O)CC(NC(=O)c1ccccc1)c1ccc(N2CCc3ccccc3C2)c([N+](=O)[O-])c1` (stereo not drawn): the “hERG current change (%, negative = inhibition) at 10uM” value was -3.72%.

As to `O=S(=O)(c1cccc2nonc12)N1CCN(c2ccccc2F)CC1`, the “hERG current change (%, negative = inhibition) at 10uM” value is given as 4.42%.

As to `Nc1ncc(Br)cc1N=Cc1ccccc1`, the “hERG current change (%, negative = inhibition) at 10uM” value is on record as 3.57%.

Regarding `O=C(O)CCCCCN1C(=O)C(O)=C(C(=O)/C=C/c2ccccc2)C1c1ccc2c(c1)OCO2` (stereo not drawn), the “hERG current change (%, negative = inhibition) at 10uM” value is recorded as 1.89%.

Take `CCOC(=O)C1CCN(C(=O)c2cc3cc4ccc(C)cc4nc3o2)CC1`: the “hERG current change (%, negative = inhibition) at 10uM” value is recorded as -11.7%.

`CCOC(=O)CSC1=NC(=O)/C(=C/c2ccc(OC)cc2)S1`: the “hERG current change (%, negative = inhibition) at 10uM” value came out at 21.5%.

As to `O=C(O)c1cnn(-c2ccccc2)c1-n1cccc1`, the “hERG current change (%, negative = inhibition) at 10uM” value stood at 9%.

In the case of `O=c1c2ccccc2nc(/C=C/c2cccc([N+](=O)[O-])c2)n1CCCO`, the “hERG current change (%, negative = inhibition) at 10uM” value is listed as -43%.

With `CCN1CCN(Cc2ccc(OC(F)(F)F)cc2)CC1`, the “hERG current change (%, negative = inhibition) at 10uM” value is given as -26.6%.

Consider `COc1ccc(CCNC(=O)COc2nncc3ccccc23)cc1`, for which the “hERG current change (%, negative = inhibition) at 10uM” value was -0.573%.

On to `Cc1[nH]n(-c2ccccc2)c(=O)c1/C=C1\C=NN=C1c1ccccc1`, for which the “hERG current change (%, negative = inhibition) at 10uM” value came to 6.9%.

On to `CCOC(=O)c1ccc(N2C(=O)c3n[nH]c(C)c3C2c2cccnc2)cc1` (stereo not drawn), for which the “hERG current change (%, negative = inhibition) at 10uM” value is -17.2%.

Regarding `O=C(COC(=O)c1cc2ccccc2cc1O)Nc1cccnc1Cl`, the “hERG current change (%, negative = inhibition) at 10uM” value is reported as 11.2%.

In the case of `CCc1cc2c(=O)oc(-c3ccc(F)cc3)nc2s1`, the “hERG current change (%, negative = inhibition) at 10uM” value amounted to 16.4%.

With `COC(=O)C1=C(c2cc3ccccc3o2)C[C@@H]2CC[C@H]1N2C(=O)NCc1ccccc1`, the “hERG current change (%, negative = inhibition) at 10uM” value is listed as -26.2%.
